The results in this text go back to PubChem BioAssay AID2202238 (Ras Initiative Chemistry Research Team, Frederick National …, 2025).

This assay deals with GTPase KRas (Homo sapiens) (UniProt P01116). Description: Covalent labelling of cysteine mutants by fragments, read by mass spectrometry (AID 2202238). Details: protein at 5 µM with 500 µM competing thiol for 1.5 h. The following applies: KRAS G12D cysteine mutants, disulfide tethering, MALDI-TOF labeling, stronger effect = higher value, fragment at 500 µM.
UniProt P01116, sequence (P01116 whole entry, looked up, the tested form may be a part): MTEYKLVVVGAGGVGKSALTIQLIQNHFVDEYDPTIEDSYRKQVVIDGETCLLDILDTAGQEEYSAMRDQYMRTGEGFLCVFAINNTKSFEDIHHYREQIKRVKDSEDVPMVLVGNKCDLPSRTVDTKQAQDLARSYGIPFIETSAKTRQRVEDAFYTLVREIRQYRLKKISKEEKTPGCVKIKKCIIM
Setting [1] is: measured here: G75C mutant labeling.
Setting [2] is: measured here: H94C mutant labeling.
Where [3] appears, read: measured here: I36C mutant labeling.
[4] abbreviates: measured here: L120C mutant labeling.
Setting [5] is: measured here: M67C mutant labeling.
[6] abbreviates: measured here: M72C mutant labeling.
Where [7] appears, read: measured here: N86C mutant labeling.
The mark [8] stands for this setting: measured here: P121C mutant labeling.
The mark [9] stands for this setting: measured here: S122C mutant labeling.
Setting [10] is: measured here: S136C mutant labeling.
[11] abbreviates: measured here: G60C mutant labeling.
Where [12] appears, read: measured here: N26C mutant labeling.

The other results are listed elsewhere or left out. Shown are side measurements of this screen, not its main read-out; they come without a call.

`O=C(CCS)NCC(=O)Nc1cccc2cccnc12`: the percent labeling was 12.6% under setting [1]; 18.9% under setting [2]; 22.6% under setting [3]; 30.4% under setting [4]; 39.8% under setting [5]; 32.3% under setting [6]. For the same compound, the percent labeling under setting [7] amounted to 8.7%, the percent labeling under setting [8] was 24.7%, the percent labeling under setting [9] came to 25.5% and the percent labeling under setting [10] is 37.7%.
Turning to `Cc1nn(CC(=O)NCCS)c2nc(C(C)C)cc(C(F)(F)F)c12`, the percent labeling by setting is: under setting [11], 17.7%; under setting [1], 13.5%; under setting [2], 9.3%; under setting [3], 4%; under setting [4], 13.1%; under setting [5], 5.4%. The compound also showed a percent labeling under setting [6] of 11.5%; a percent labeling under setting [12] of 13.4%; a percent labeling under setting [7] of 4.2%; a percent labeling under setting [8] of 5.4%; a percent labeling under setting [9] of 3.2%; a percent labeling under setting [10] of 6.4%.
With `Cn1ncc2cc(CNC(=O)CCS)cnc21`, the percent labeling by setting is: under setting [1], 11.8%; under setting [2], 24.2%; under setting [3], 43.5%; under setting [4], 20.9%; under setting [5], 38.1%; under setting [6], 21.4%. The same compound came in with a percent labeling under setting [7] of 26.7%, a percent labeling under setting [8] of 33.7%, a percent labeling under setting [9] of 29.2% and a percent labeling under setting [10] of 47.6%.
As to `COc1ccc2c(C)c(CCC(=O)NCCS)c(=O)oc2c1`, the percent labeling was 35.8% under setting [11]; 14% under setting [1]; 22.7% under setting [2]; 19.8% under setting [3]; 19.7% under setting [4]; 16.6% under setting [5]. Moreover, the percent labeling reads like this: under setting [6], 28.1%; under setting [12], 31%; under setting [7], 15.9%; under setting [8], 17.4%; under setting [9], 10.1%; under setting [10], 20.8%.
Turning to `Cc1cc(N2CC(NC(=O)CCS)C2)cc(=O)o1`, the percent labeling by setting is: under setting [1], 11.9%; under setting [2], 24.6%; under setting [3], 36.2%; under setting [4], 27.7%; under setting [5], 30.2%; under setting [6], 18.2%. The percent labeling under setting [7] turned out to be 8.6%, the percent labeling under setting [8] amounted to 32%, the percent labeling under setting [9] stood at 32.2% and the percent labeling under setting [10] was found to be 42.5%.
Regarding `O=C(NCCS)c1ccc(=O)n(-c2ccccc2F)c1`, the percent labeling is 40.8% under setting [11]; 24.2% under setting [1]; 38.1% under setting [2]; 34.6% under setting [3]; 46.1% under setting [4]; 44% under setting [5]. Besides, the percent labeling is, setting by setting: under setting [6], 48.9%; under setting [12], 48.3%; under setting [7], 27.3%; under setting [8], 40.9%; under setting [9], 33.3%; under setting [10], 70.3%.
Take `Cc1nc2c(c(C)c1CC(=O)NCCS)c(=O)[nH]n2C`: the percent labeling runs as follows: under setting [11], 29.6%; under setting [1], 14%; under setting [2], 30%; under setting [3], 22.6%; under setting [4], 31.2%; under setting [5], 24.4%. Besides, the percent labeling is, setting by setting: under setting [6], 19.8%; under setting [12], 31.9%; under setting [7], 23.9%; under setting [8], 30.2%; under setting [9], 28.7%; under setting [10], 34.9%.
Turning to `CN(CCCc1cc(-c2ccccc2)n(C)n1)C(=O)CCS`, the percent labeling came to 17.1% under setting [1]; 50.4% under setting [2]; 37.1% under setting [3]; 29.6% under setting [4]; 47.2% under setting [5]; 36.2% under setting [6]. Moreover, the percent labeling reads like this: under setting [7], 24.7%; under setting [8], 30.4%; under setting [9], 28%; under setting [10], 63.4%.
Consider `O=C(NCCS)C1CC(=O)N(Cc2ccc(F)cc2F)C1` (configuration not stated), for which the percent labeling runs as follows: under setting [11], 42.5%; under setting [1], 16.6%; under setting [2], 37.4%; under setting [3], 36.2%; under setting [4], 38.3%; under setting [5], 46.7%. Besides, the percent labeling amounted to 45% under setting [6]; 48.2% under setting [12]; 27.8% under setting [7]; 35.2% under setting [8]; 36.4% under setting [9]; 56.9% under setting [10].
Regarding `Cc1nc2nc[nH]n2c(=O)c1CCC(=O)NCCS`, the percent labeling amounted to 16.8% under setting [11]; 6.2% under setting [1]; 24.5% under setting [2]; 19.3% under setting [3]; 35.9% under setting [4]; 22.6% under setting [5]. Also, the percent labeling reads like this: under setting [6], 8%; under setting [12], 29.3%; under setting [7], 25%; under setting [8], 29%; under setting [9], 32.1%; under setting [10], 31.3%.
Turning to `O=C(CN1C(=O)NC(c2cccs2)(C2CC2)C1=O)NCCS` (configuration not stated), the percent labeling is 33.4% under setting [11]; 9.5% under setting [1]; 25.7% under setting [2]; 22.4% under setting [3]; 43.9% under setting [4]; 36% under setting [5]. For the same compound, the percent labeling came out at 25.4% under setting [6]; 29.8% under setting [12]; 21.4% under setting [7]; 25.3% under setting [8]; 26.9% under setting [9]; 45% under setting [10].
Consider `O=C(COC(c1ccccc1)c1ccccc1)NCCS`, for which the percent labeling came out at 26.4% under setting [11]; 15.7% under setting [1]; 19.8% under setting [2]; 12.8% under setting [3]; 24.6% under setting [4]; 14.1% under setting [5]. Moreover, the percent labeling under setting [6] is 31.1%; the percent labeling under setting [12] was 19.6%; the percent labeling under setting [7] is 11.5%; the percent labeling under setting [8] is 14.4%; the percent labeling under setting [9] was 10.4%; the percent labeling under setting [10] stood at 39.6%.
Consider `CN1C(=O)CCc2cc(C(=O)NCCS)ccc21`, for which the percent labeling under setting [11] stood at 43.3%; the percent labeling under setting [1] was 24.6%; the percent labeling under setting [2] amounted to 33%; the percent labeling under setting [3] worked out at 26.5%; the percent labeling under setting [4] is 38.6%; the percent labeling under setting [5] was determined as 37.1%. Further, the percent labeling under setting [6] worked out at 63.1%; the percent labeling under setting [12] was 50.9%; the percent labeling under setting [7] was 24.5%; the percent labeling under setting [8] was determined as 26.7%; the percent labeling under setting [9] was 28.1%; the percent labeling under setting [10] was determined as 48.1%.
In turn, `CN(C)C(C(=O)NCCS)c1ccc(Cl)cc1` (configuration not stated) had a percent labeling under setting [11] of 7.6%; a percent labeling under setting [1] of 0%; a percent labeling under setting [2] of 5.5%; a percent labeling under setting [3] of 7.6%; a percent labeling under setting [4] of 13.5%; a percent labeling under setting [5] of 8.9%. Further, the percent labeling under setting [6] was 0%; the percent labeling under setting [12] came to 3.9%; the percent labeling under setting [7] is 0%; the percent labeling under setting [8] came to 5.2%; the percent labeling under setting [9] worked out at 4%; the percent labeling under setting [10] stood at 10.9%.
`O=C(NCCS)c1ccn(Cc2ccccc2)c1` gave a percent labeling under setting [11] of 30.1%; a percent labeling under setting [1] of 18.4%; a percent labeling under setting [2] of 18.2%; a percent labeling under setting [3] of 11.8%; a percent labeling under setting [4] of 24.2%; a percent labeling under setting [5] of 23%. In addition, the percent labeling runs as follows: under setting [6], 33.9%; under setting [12], 28.9%; under setting [7], 13.4%; under setting [8], 15.4%; under setting [9], 15.5%; under setting [10], 30.1%.
`O=C(CCS)NCCn1c(=O)[nH]c2cccnc21`: the percent labeling runs as follows: under setting [1], 9.9%; under setting [2], 27.1%; under setting [3], 40.5%; under setting [4], 31.2%; under setting [5], 31.8%; under setting [6], 18.1%. Besides, the percent labeling reads like this: under setting [7], 12.9%; under setting [8], 32.2%; under setting [9], 34.4%; under setting [10], 47.3%.
For the compound `O=C(NCCS)c1cccc2cnccc12`, the percent labeling runs as follows: under setting [11], 48%; under setting [1], 27.6%; under setting [2], 45.8%; under setting [3], 35.8%; under setting [4], 34.8%; under setting [5], 46.1%. The percent labeling under setting [6] turned out to be 42%; the percent labeling under setting [12] worked out at 54.5%; the percent labeling under setting [7] turned out to be 36.3%; the percent labeling under setting [8] came out at 38.5%; the percent labeling under setting [9] was determined as 34.7%; the percent labeling under setting [10] turned out to be 56.7%.
Turning to `Cc1nc(-c2c(C)noc2C)sc1C(=O)NCCS`, the percent labeling is, setting by setting: under setting [11], 27%; under setting [1], 10.8%; under setting [2], 20%; under setting [3], 15.1%; under setting [4], 17.8%; under setting [5], 19.6%. Moreover, the percent labeling runs as follows: under setting [6], 37.6%; under setting [12], 35.7%; under setting [7], 11.1%; under setting [8], 15.9%; under setting [9], 13.6%; under setting [10], 39%.
With `O=C(NCCS)c1ccc(C(=O)N2CCOCC2)cc1`, the percent labeling by setting is: under setting [11], 30.6%; under setting [1], 14.2%; under setting [2], 32.9%; under setting [3], 30.5%; under setting [4], 44.6%; under setting [5], 31.8%. Further, the percent labeling under setting [6] came out at 28.5%; the percent labeling under setting [12] was 40.1%; the percent labeling under setting [7] turned out to be 26.5%; the percent labeling under setting [8] stood at 31.2%; the percent labeling under setting [9] is 30%; the percent labeling under setting [10] came out at 42.7%.
Consider `Cn1cc(C(=O)NCCS)c(C(F)(F)F)c1`, for which the percent labeling reads like this: under setting [11], 44.4%; under setting [1], 27.2%; under setting [2], 43.8%; under setting [3], 23.8%; under setting [4], 46.2%; under setting [5], 34.7%. The percent labeling came to 47.1% under setting [6]; 42.3% under setting [12]; 48.9% under setting [7]; 31.2% under setting [8]; 30.1% under setting [9]; 46.3% under setting [10].
As for `O=C(Cn1cnc2ccc(Br)cc2c1=O)NCCS`, the percent labeling stood at 22.5% under setting [11]; 7.1% under setting [1]; 13% under setting [2]; 11.4% under setting [3]; 17% under setting [4]; 9.8% under setting [5]. Besides, the percent labeling is 19.9% under setting [6]; 33.3% under setting [12]; 9.8% under setting [7]; 8.7% under setting [8]; 5.4% under setting [9]; 9% under setting [10].
As to `O=C(CCS)Nc1cn(CCOCC(F)(F)F)nc1-c1ccccn1`, the percent labeling reads like this: under setting [1], 9.8%; under setting [2], 10.9%; under setting [3], 9.1%; under setting [4], 10%; under setting [5], 12.2%; under setting [6], 26.8%. The percent labeling under setting [7] worked out at 4.8%, the percent labeling under setting [8] is 10.4%, the percent labeling under setting [9] stood at 9.4% and the percent labeling under setting [10] came out at 14.5%.
